Data as given in PMC4336329 (PLoS ONE, 2015).
Hit rate of the full screen: of about 310,000 compounds, about 2,200 (0.71%) showed an effect of 50% or more. Effects have a minus sign here. This is one part of the list.

What follows are molecules tested against human ether-à-go-go-related gene (hERG) potassium channel (human, UniProt Q12809) (assay: primary screen, population patch clamp on CHO cells stably expressing hERG).
Sequence of human ether-à-go-go-related gene (hERG) potassium channel (Q12809 whole entry, looked up): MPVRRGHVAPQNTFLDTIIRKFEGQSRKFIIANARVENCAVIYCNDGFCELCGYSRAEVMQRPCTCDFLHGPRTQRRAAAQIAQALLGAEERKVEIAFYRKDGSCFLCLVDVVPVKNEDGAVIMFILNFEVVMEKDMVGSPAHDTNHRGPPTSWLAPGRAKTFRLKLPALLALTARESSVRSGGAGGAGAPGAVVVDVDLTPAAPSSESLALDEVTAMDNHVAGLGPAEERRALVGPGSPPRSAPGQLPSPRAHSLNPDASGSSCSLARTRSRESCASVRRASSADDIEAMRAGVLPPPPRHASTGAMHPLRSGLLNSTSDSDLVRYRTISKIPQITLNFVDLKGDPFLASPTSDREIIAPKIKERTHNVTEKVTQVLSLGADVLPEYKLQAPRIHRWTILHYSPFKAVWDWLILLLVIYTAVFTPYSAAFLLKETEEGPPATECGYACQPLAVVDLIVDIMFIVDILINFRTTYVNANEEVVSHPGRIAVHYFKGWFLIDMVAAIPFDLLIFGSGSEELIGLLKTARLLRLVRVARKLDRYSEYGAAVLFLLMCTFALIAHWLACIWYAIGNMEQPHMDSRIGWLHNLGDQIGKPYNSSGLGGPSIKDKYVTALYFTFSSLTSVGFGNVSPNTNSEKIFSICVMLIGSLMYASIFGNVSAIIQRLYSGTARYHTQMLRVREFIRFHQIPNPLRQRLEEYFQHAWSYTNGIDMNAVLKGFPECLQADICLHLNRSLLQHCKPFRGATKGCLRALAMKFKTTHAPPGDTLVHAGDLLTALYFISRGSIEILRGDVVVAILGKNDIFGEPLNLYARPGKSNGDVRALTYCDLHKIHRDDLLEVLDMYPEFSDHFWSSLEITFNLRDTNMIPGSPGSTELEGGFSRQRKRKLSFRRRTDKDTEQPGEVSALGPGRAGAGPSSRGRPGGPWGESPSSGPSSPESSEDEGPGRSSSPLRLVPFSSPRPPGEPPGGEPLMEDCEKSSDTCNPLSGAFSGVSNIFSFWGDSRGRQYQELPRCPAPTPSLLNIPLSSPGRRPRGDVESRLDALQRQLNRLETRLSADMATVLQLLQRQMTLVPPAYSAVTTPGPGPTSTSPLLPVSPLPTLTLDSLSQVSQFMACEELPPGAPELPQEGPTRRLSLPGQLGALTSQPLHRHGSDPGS

Compound	hERG current change (%, negative = inhibition) at 1uM
COc1ccc(OC)c(C2=CC(=O)C[C@H](c3ccc4c(c3)OCO4)C2)c1	-2.03%
O=C(NCCc1ccccc1)c1ccc(CS(=O)(=O)c2ccc(Cl)cc2)o1	5.28%
O=C(CCC1COc2ccccc2O1)NCc1ccccc1 (centres unmarked)	4.8%
CC(C)(C)C(=O)N1CCN(c2ccc([N+](=O)[O-])c(NCc3cccnc3)c2)CC1	-11.5%
COc1ccc2[nH]c3c(c2c1)CCNC3(C)CCc1ccc(Cl)nc1 (centres unmarked)	3.73%
CCc1ccccc1NNC(=O)c1snnc1C	1.7%
COc1cc(C=O)ccc1OC(=O)N1CCOCC1	15.4%
OC(Cn1nnc2ccccc21)Cn1c(C(F)(F)F)nc2ccccc21 (centres unmarked)	13.5%
Cc1ccc(S(=O)(=O)Nc2cc(C)cn(Cc3ccc(F)cc3)c2=O)cc1	4.87%
O=C(NCc1ccco1)/C(=C/c1ccc(Cl)cc1)NC(=O)c1ccco1	4.25%
O=C1CC(c2ccccc2)C(C(=O)O)N1 (centres unmarked)	12.1%
Nn1c(SCc2cccc(Br)c2)nnc1-c1ccncc1	7.48%
O=C(NCc1ccccc1)/C(=C/c1ccc(OC(F)F)cc1)c1ccccc1	14%
O=C(NNc1ccccc1[N+](=O)[O-])Nc1ccc(Cl)c(Cl)c1	14.2%
Cc1cc(C(=O)N2CCc3c([nH]c4ccccc34)C2c2c(F)cccc2Cl)no1 (centres unmarked)	8.86%
C#CCOCOCC#CCN(CC)CC	2.27%
Cc1ccc(S(=O)(=O)N2CCOCC2)cc1C(=O)N1C(=O)c2cccc(N)c2C1=O	13.6%
COc1cccc(CCc2nnc(CCC(=O)N3CCN(Cc4ccccn4)CC3)o2)c1	10.2%
CCSc1nnc(NC(=O)c2csc(C)c2)s1	3.99%
COc1cc2c(C(=O)N(C)c3cc(Cl)ccc3OC)cn(C)c(=O)c2cc1OC	11.8%
CN1CCOC(c2ccccc2)c2ccccc2C1.Cl (centres unmarked)	13.8%
O=C1CCc2cc(S(=O)(=O)Nc3ccccc3Cl)ccc2N1	0.625%

Compound	hERG current change (%, negative = inhibition) at 1uM
CCN(CC)C(=O)Oc1ccc(Br)cc1C(=O)Nc1ccc(F)cc1F	11.4%
Cc1c(O)ccc2c(CN(C)Cc3ccccc3)cc(=O)oc12	11.4%
N#Cc1nc(-c2ccc(Cl)cc2)oc1NCc1ccco1	18.1%
O=C1NC(=O)N(c2ccccc2F)C(=O)/C1=C/c1ccc(Sc2nc3ccccc3[nH]2)o1	-0.511%
C#CCOCCOCCOCCNc1nc(N2CCN(C(=O)Cn3cc(CC(C)O)nn3)CC2)nc(N2CCN(C(=O)[C@H]([C@@H](C)CC)n3cc(CCC[NH+]=C(N)N)nn3)CC2)n1.[Cl-] (some centres unmarked)	9.93%
O=[N+]([O-])c1ccc(-c2nc(=S)c3c(o2)CCCC3)cc1	3.32%
CC(=O)c1cnc2cc(-c3ccccc3)nn2c1C	-10.2%
Cc1oc(C(=O)Nc2ccc(C(=O)O)cc2)cc1COc1ccccc1	3.43%
COC(=O)Nc1nn(-c2ccc(OC)cc2)c(=O)c(C#N)c1C	12.3%
CCOC(=O)c1c(C)[nH]c(C(=O)C(C)N2CCCC2)c1C (centres unmarked)	2.73%
O=C(Nc1ccc(Oc2ccccc2)nc1)C1CCCCN1Cc1ccc(O)cc1 (centres unmarked)	11%
CCCCOP(=O)(OCCCC)C1(NS(=O)(=O)c2ccccc2)C=CC(=O)c2ccccc21 (centres unmarked)	10.2%
Fc1ccccc1NC(=S)N1CCN(Cc2ccc3c(c2)OCO3)CC1	8.15%
NS(=O)(=O)c1ccc(CCNC(=O)c2cccnc2)cc1	7.88%
Cc1cc2c(NS(=O)(=O)c3ccc(F)cc3)cccc2nn1	12%
COC(=O)c1ccccc1NC(=O)NCc1c(C)nn(C)c1C	17%
CCCOc1ccc(N2CC(C(=O)Nc3ccccc3F)CC2=O)cc1 (centres unmarked)	4.54%
O=C1CC(c2ccc(F)cc2)Sc2nc(C34CC5CC(CC(C5)C3)C4)nn21 (centres unmarked)	20.3%
O=C1SC(SCc2ccccc2)=N/C1=C\c1ccc(C(=O)O)cc1	17%
O=C(Nc1nnc(Cc2ccc(Cl)cc2)s1)C1CCCO1 (centres unmarked)	19.6%
CCCCC(=O)N/N=C/c1c(O)n(-c2cccc3ccccc23)c(=O)[nH]c1=O	6.92%
N/C(=N\OC(=O)c1ccc(=O)n(Cc2ccc(Cl)cc2)c1)c1ccccn1	0.848%
